Reference: PubChem BioAssay AID540267 (National Center for Advancing Translational Sciences (NCATS), 2011)
Screen size: about 340,000 compounds; about 530 (0.16%) were called active. Inconclusive results, whose numbers are uncertain, are shown with a selection of clear calls. Rule as the data show it: active = activity change below about -80%; inconclusive = between about -30% and that limit; inactive = weaker than that.

test: Small Molecules that selectively kill Giardia lamblia: qHTS; conditions: Giardia lamblia trophozoite viability; at 7.66 µM; stronger effect = lower value;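 also: parasites exposed to compound for two days anaerobically before the ATP read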
Summary of the method: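 Compounds were tested on trophozoites seeded at 100 cells/well and held 48 hrs at 37 deg C anaerobically. An ATP-based luminescent kit measured the remaining live cells.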
% is scaled to controls: 0 for no effect and ±100 for the full control effect.

Structure (SMILES)	activity change
CCOc1ccccc1C(=O)N[C@H](C(=O)Nc1nc2c(s1)CCCC2)C(C)C	inactive: 30.9%
CCCCCCCC1CC(=O)C=C(C)C1C(=O)OCC (stereo not drawn)	inconclusive: -31.9% [inhibitor]
Cn1c(NC(=O)C[n+]2cc(-c3ccc(F)cc3)n3c2CCC3)cc(=O)n(C)c1=O	inactive: 8.56%
OCC[C@H]1C[C@H](O)[C@@H](O)[C@@]2(Cc3ccccc3CCO2)O1	inconclusive: -32.6% [inhibitor]
O=C(O)CCc1ccc(-c2ccc(Br)cc2)n1Cc1ccco1	inactive: 10.7%
CC(=O)c1cc(C#N)c(N(C)Cc2ccccc2)nc1C	inconclusive: -36.2% [inhibitor]
S=C(Nc1cc(Cl)cc(Cl)c1)NC1CCN(Cc2ccccc2)CC1	inconclusive: -36% [inhibitor]
S=c1[nH]nc2ccccn12	inconclusive: -46.5% [inhibitor]
Cc1cccc(/C=C2\CCC(=C3SCCCS3)C2=O)c1	inconclusive: -33.7% [inhibitor]
COc1ccc2[nH]c3nc(SC(C)C)nnc3c2c1	inconclusive: -35.5% [inhibitor]
O=C(OCC(=O)N1CCOCC1)c1ccc2ccccc2c1O	inactive: 1.65%
CC1(C)[N+]([O-])=C2C(=[N+]([O-])C1(C)C)c1ccccc1/C2=N\O	active: -98.3%
O=C(Nc1cccc2ncccc12)c1ccc([N+](=O)[O-])o1	active: -80.4%
Cc1nc(-c2ccccc2)cn(O)c1=O	inactive: 8.06%
Cc1onc(-c2ccccc2)c1NC(=O)N(Cc1ccccc1)C(C)C	inconclusive: -60.4% [inhibitor]
CC1(C)CNC(=O)c2sc(NC(=O)c3ccccc3)nc2C1	inconclusive: -31.6% [inhibitor]
COc1ccc(Nc2ncnc3sccc23)cc1	inactive: -29.9%
CCCOc1cccc(-c2nnc(NC(=O)c3ccco3)s2)c1	inconclusive: -48.9% [inhibitor]
CC(C)(C)c1ccc(C(=O)NCc2ccc(Cl)cc2)cc1	inactive: -1.09%
O=C1/C(=C/c2ccco2)SC(=S)N1C1CCS(=O)(=O)C1 (stereo not drawn)	inconclusive: -35% [inhibitor]
COc1cc(/C=N/NC(=O)c2cc(O)cc(O)c2)ccc1OC(=O)c1ccccc1	inactive: 3.5%
COc1ccc(S(=O)(=O)N2CCN(CC(=O)Nc3cccc(F)c3)CC2)cc1	inconclusive: -30.6% [inhibitor]
Cc1nc2ccccn2c1C(=O)NNC(=S)Nc1ccc(Cl)cc1	inconclusive: -31.5% [inhibitor]
CC(C)(C)CC(C)(C)SSc1n[nH]c(=S)s1	inactive: -1.57%
COC(=O)[C@H]1C[C@H]1[C@@H](NC(=O)c1cccnc1)c1ccccc1	inconclusive: -32% [inhibitor]
COc1cc(-c2noc(C)c2-c2ccc3[nH]ccc3c2)cc(OC)c1OC	inactive: -1.97%
CC(C)Oc1ccc(C(=O)NC(=S)N2CCOCC2)cc1	inconclusive: -30.2% [inhibitor]

Structure (SMILES)	activity change
COc1ccc(C(CC(=O)c2ccccc2)S(=O)(=O)c2ccccc2)cc1 (stereo not drawn)	inconclusive: -30.1% [inhibitor]
Cc1cc(C2=NNC(=NC3CC3)SC2)c(C)n1-c1ccccc1F	inconclusive: -73.8% [inhibitor]
CCOC(=O)/C(=N/Nc1ccc(OC)cc1)Sc1nnc(CCc2ccccc2)n1-c1ccccc1	inactive: 3.55%
Clc1ccc2oc(-c3ccccc3)cc(=NCCCN3CCOCC3)c2c1	active: -87.2%
CSc1cccc(NC(=O)C2CCN(C(=O)c3ccccc3C)CC2)c1	inactive: -21.2%
CC1C/C(=C/c2ccncc2)C(=O)/C(=C/c2ccncc2)C1 (stereo not drawn)	inconclusive: -59% [inhibitor]
O=C(CNC(=O)c1ccccc1Cl)c1ccccc1	inconclusive: -31.3% [inhibitor]
COc1ccc(C2/C=C\CN(C(=O)c3ccc(C)cc3)C(C)C(=O)N2Cc2ccc(F)cc2)cc1 (stereo not drawn)	inactive: 14.6%
Oc1ccc(/C=N/Nc2nc(N3CCCCCC3)nc(N3CCCCCC3)n2)c(O)c1	inactive: -10.9%
Cc1ccc(CNC(=O)c2ccccc2NS(C)(=O)=O)cc1	inconclusive: -30.6% [inhibitor]
O=C(c1c(F)cccc1F)N1CCN=C1SCc1ccccc1	inconclusive: -33.8% [inhibitor]
C=C1CCN(C(CC(C)C)C(=O)N2CCOCC2)S(=O)(=O)c2ccccc21 (stereo not drawn)	inconclusive: -39.3% [inhibitor]
O=C(O)CN1C(=O)C(=O)N(Cc2ccccc2F)C1=O	inactive: 6.55%
COC(=O)c1sc(S(=O)(=O)Nc2ccc(Br)cc2)c(C(=O)OC)c1C	inactive: 0.834%
COc1ccc(OC)c(CN2CCN(C(=O)c3cccc4ccccc34)CC2)c1	inactive: -13.3%
COc1ccc(-c2cc(C(F)(F)F)nc(SCC(=O)Nc3cc(C)on3)n2)cc1	inactive: -4.19%
Cc1ccc(OCc2nnc(NC(=O)OCC(C)C)s2)cc1	inconclusive: -38% [inhibitor]
COc1ccccc1-n1c(SCC(=O)N2CCc3ccccc32)nc2c(c1=O)SCC2	inactive: 10.3%
CCOC(=O)Cc1nnc(NC(=O)C2CCCCC2)s1	inconclusive: -32.3% [inhibitor]
COC(=O)c1ccc(C(=O)OC)c(NC(=O)COC(=O)C2CCC(C(C)(C)C)CC2)c1 (stereo not drawn)	inactive: -3.89%
CS(=O)(=O)c1ccc(NCCN2CCOCC2)c([N+](=O)[O-])c1	inconclusive: -35.1% [inhibitor]
Cc1cc(N)ccc1N=Nc1c(C)n(C)n(-c2ccccc2)c1=O	inconclusive: -56% [inhibitor]
Cc1nn(C)c(C)c1CN(C(=O)C1CCC(=O)N(C2CCCCCC2)C1)C(C)C (stereo not drawn)	inconclusive: -35.8% [inhibitor]
O=C(NCCCN1CCN(c2ccccc2F)CC1)C1CCN(S(=O)(=O)N2CCOCC2)CC1	inconclusive: -36.7% [inhibitor]
COc1cc(SC)ccc1C(=O)Nc1ncc(C)s1	inconclusive: -41.9% [inhibitor]
Cc1ccc(C(C(=O)NC2CCCCC2)N(C(=O)Cc2c[nH]c3ccccc23)c2ccccc2)o1 (stereo not drawn)	inactive: -10.7%
